AUC and IC50 data for 28 cell lines are collected here from the supplement of paper PMC4967469.

In general, IC50 refers to the midpoint of a concentration-inhibition curve.

A lower IC50 marks a more sensitive line; a fit beyond the top or the lowest dose is shown as a bound at that dose. AUC, from the same fit, is the share of area under the viability curve across the 256-fold dose range; the more sensitive the line, the further below 1. Drugs with an entry number were screened twice under separate entries, and the two screens often disagree. Some results are limits rather than exact numbers.

Compound in this assay: CS(=O)(=O)N1CCN(Cc2cc3nc(-c4cccc5[nH]ncc45)nc(N4CCOCC4)c3s2)CC1 [GDC0941]
Briefly: Viability of human cancer cell lines after 72 h of drug (GDSC screen). Particulars: screen: GDSC drug entry 1058. The procedure:
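Human cancer cell lines in 384-well plates, medium with 10% serum, drug for 72 h over a 256-fold dose range (nine 2-fold or five 4-fold steps up to the top dose). Adherent lines were fixed and stained with the nucleic acid dye Syto60, suspension lines read with resazurin; signal relative to control wells, capped at 0 and 100%. One two-parameter sigmoid per drug and line, fitted in a mixed model over all curves with the slope shared within a line.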
As to HuH-7 (liver, adherent, top dose 4 µM), the AUC was 0.718 and the IC50 came out at 1.03 µM.

Turning to “HuO9 (osteosarcoma, adherent, top dose 4 µM)”, the AUC worked out at 0.485 and the IC50 was 0.227 µM.

For the cell line “HuO-3N1 (osteosarcoma, adherent, top dose 4 µM)”, the AUC came to 0.853 and the 50% inhibitory concentration (IC50) is more than 4 µM.

Take “HuP-T3 (pancreas, adherent, top dose 4 µM)”: the AUC was 0.774 and the IC50 amounted to 1.93 µM.

In the case of “HuP-T4 (pancreas, adherent, top dose 4 µM)”, the AUC is 0.716 and the IC50 came out at 1.06 µM.

With “IA-LM (large cell lung carcinoma, adherent, top dose 4 µM)”, the AUC was 0.854 and the IC50 worked out at 3.79 µM.

On to “IGR-1 (melanoma, adherent, top dose 4 µM)”, for which the AUC is 0.987 and the IC50 was more than 4 µM.

Turning to “IGROV-1 (ovary, adherent, top dose 4 µM)”, the AUC came to 0.605 and the IC50 stood at 0.558 µM.

With “IHH-4 (thyroid, semi-adherent, top dose 4 µM)”, the AUC is 0.799 and the IC50 turned out to be 1.49 µM.

As for “IM-9 (myeloma, suspension, top dose 4 µM)”, the AUC is 0.985 and the IC50 is more than 4 µM.

In the case of “IMR-5 (neuroblastoma, adherent, top dose 4 µM)”, the AUC was 0.992 and the IC50 is more than 4 µM.

Turning to “IPC-298 (melanoma, adherent, top dose 4 µM)”, the AUC was 0.917 and the IC50 was more than 4 µM.

Regarding “IST-MEL1 (melanoma, adherent, top dose 4 µM)”, the AUC is 0.902 and the IC50 was more than 4 µM.

In the case of “IST-SL1 (small cell lung carcinoma, semi-adherent, top dose 4 µM)”, the AUC was 0.987 and the IC50 was more than 4 µM.

Consider “IST-SL2 (small cell lung carcinoma, suspension, top dose 4 µM)”, for which the AUC worked out at 0.731 and the IC50 stood at 1.13 µM.

With “JAR (urogenital system, adherent, top dose 4 µM)”, the AUC was 0.988 and the IC50 is more than 4 µM.

With “JEG-3 (urogenital system, adherent, top dose 4 µM)”, the AUC was 0.939 and the concentration for half-maximal inhibition (IC50) is more than 4 µM.

For the cell line JHH-1 (liver, adherent, top dose 4 µM), the AUC stood at 0.663 and the IC50 amounted to 0.741 µM.

As to JHH-2 (liver, adherent, top dose 4 µM), the AUC was 0.871 and the half-inhibitory concentration (IC50) is more than 4 µM.

JHH-4 (liver, adherent, top dose 4 µM): the AUC was 0.858 and the IC50 was 3.28 µM.

For JHH-7 (liver, adherent, top dose 4 µM), the AUC is 0.942 and the IC50 is more than 4 µM.

Consider JHOS-2 (ovary, adherent, top dose 4 µM), for which the AUC worked out at 0.514 and the IC50 is 0.275 µM.

Take JHOS-3 (ovary, adherent, top dose 4 µM): the AUC was 0.827 and the IC50 amounted to 3.42 µM.

For JHOS-4 (ovary, adherent, top dose 4 µM), the AUC is 0.899 and the concentration for half-maximal inhibition (IC50) was more than 4 µM.

On to “JHU-011 (head and neck, adherent, top dose 4 µM)”, for which the AUC is 0.58 and the IC50 came to 0.413 µM.

On to “JHU-022 (head and neck, adherent, top dose 4 µM)”, for which the AUC worked out at 0.676 and the IC50 worked out at 0.891 µM.

For the cell line “JHU-029 (head and neck, adherent, top dose 4 µM)”, the AUC was determined as 0.722 and the IC50 was determined as 1.25 µM.

As to “JIMT-1 (breast, adherent, top dose 4 µM)”, the AUC was found to be 0.595 and the IC50 was determined as 0.467 µM.
